Measured values taken from the RNAGym collection of RNA variant scans (doi:10.7554/elife.90254).
Read counts are not given, so values of variants with three or more changes are uncertain.

B1: LINE1-mini (parent)
chain: GGCAGAGCUCAACACAGCGUGGCAAAGUGGCUGUGGCUAGACUGCC

Variants of: B1
Assay: self-cleavage, relative activity (ratio to wild type); higher = more cleavage; in vitro, sequencing; the parent is a self-cleaving ribozyme

Variant	self-cleavage
G22U C23A A25C	0.52
A11U G21U G30C	0.08
G1U G21A G29A	0.47
G5A A11U C46A	0.02
A4U A6G C46A	0.5
G2U A16G U43C	0.01
A6G A16C G30C U38G	0
A11U A16G G22C A25U G30U	0.01
C3A C13G G22U	1.09
U20A U28C G40U	0.08
A6U U32G G33C U34C G35U	0
A4G A14G A16G U28G A41C	0.01
C31G G35U U43A	0.03
C10U G17A U20G G36C	0.02
A16C G17C A26U C37A C45A	0.07
G21C G30C C42A	0.19
A6C A12U C37A A41C C42A	0.01
C3A A12U C13A C15U G17U U28C	0.13
A11G A14G G17U G35U	0
U9A A25U C37A	0.17
A25U A26U A39C A41C C46A	0.03
G1A G27C G29U	0.61
G2U G5C A14U G21U U38G	0
C23G G40C C45A	0.17

Variant	self-cleavage
A4C G21A C37U C42A G44A	0.02
G5U A12C U38C U43A	0.02
G17C G30C A41U	0.05
G1U C23U G30U U34G	0.01
G2C C3A C37U	0.02
G5A C23A A25G	0.16
C3U C18U G29A G30C	0.22
G1U G7U C10G A16G C37G G44U	0
G1A A6G G7A	0.1
U20A G29U A39U A41U	0.75
A12G U20A A41U	0.03
G1U C15G U20C G29A G44A	0.01
A12U A39G C42U	0.01
A14C G35C G40U C45G	0.06
U9A G30U C46U	0.02
C23G A26U G33A U38A G44A	0.02
G1C G17U G21U C23G	0.02
C3U A12G U28G	0.04
G1C G7C C23G U43C	0.02
G1U A25U U32G U38A G44A	0.09
U9A G40U G44C	0.05
G5C C37G G40U	0.03
C8A C13U C18G G33U C45U	0.06
G27A G30U C42G	0.09

Variant	self-cleavage
C3A G19A U34A U43C	0.02
A6C A26G G40C	0.14
G1U G7U U9A A11C C18A G35A U38G U43G	0
C13A G17C A24C	0.06
G7U U9C A25C	0.02
G7C G27C G44A	0.06
C18G C23U G36C C37G	0.05
G33A A41C C42A	0.02
G1U G29C C45A	0.13
A14U C15A G21C	0.13
G2C C18U G30U U38A	0.01
C3G C10G C42G C46A	0.02
G5U U9A U34A	0.21
G17A C23A C46G	0.02
A6U U9A C13A	1.53
C3G C10U G19A	0.69
A6C A12U G27C G30U G36C A39G	0.04
G5C C15U G21A A26C G29A G33U	0.07
A14U A25G G36C A41U U43G	0.01
A12U A26U G36U C37G	0.01
A11G G19A G22C C31U	0.03
C3A C10A C13A U32G	0.06
G5C A16C G17A	0.04
G27U G29C G33U	0.16

Variant	self-cleavage
G2A A6U A11U G36C	0.03
A12U G29C A39U C45U	0.13
A11G A16G U34C U38A	0.01
G7C G33A G35A	0.5
C10U A16C U20C	0.08
G2U C13G G29A C31U U32A	0.01
G19U G36C C42A	0.1
U9C C10A A11C A14C A25C U34A G36A	0.01
G2A G22U A26U	0.46
A14U A16G G40C	0.02
G1A C15A C18U G44A	0.06
G7C C18U U32C C37A	0.02
A4G C8A C10U C15A C31U G44A C46U	0.1
C8U C10U C15A C46A	0.03
G1A G21U G22U C42U	0.55
C10G C13A C31U	0.04
U9A A11C C18A G22C U34A	0.02
G2A A4G G7A	0.38
A4C A6G U32C	0.3
G5A G27U C37A A41C	0.03
A6U C10U C13A C15G U28C G33A U43A	0
G1U A14G U28G G30A C45A	0.01
G7A A12C U20A U28C G35C	0
A12U G29A G40A A41G	0.08

Variant	self-cleavage
A4C A6C C10U C23U	0.06
U9C G17A A25C G36C G44U	0
C8A C15A C23U A25C G27A	0.2
G5C A16G C18U U34A A41C U43C	0.07
G1A G19C G27U U32A	0.07
A4C C15U C23G G36A	0.02
C8A G17A G19A G21A G35U	0.06
C3A A14U A16G G40A	0.13
C15U A16C C45A	0.07
G7C G29U G33A U38A G44A	0.03
U9A G21A U32C	0.12
G29U C42U U43G	0.03
A6C G17U G35U G36A C42A	0.05
G2A C8U U28G A39C C42U	0.47
G1C C10U G17U A39G	0
G5C A14U G21A U28G	0.01
G1A C8A C10A U28C	0.08
C3A A6G C23A	0.11
A12G U28C U38C G40C	0.06
C3G A4G G7C G17A G22U U32G	0.01
C3G A16G G27A G33U	0.08
C10U G19C G22U G30U G36A C46U	0.01
G21U U32G U34C	0.29
A4C G5A A39G	0.01

Variant	self-cleavage
C13A C18A U28A G29C	0.17
G1C C8A G21C	0.04
C8U C23U A41U	0.42
C3A C15U C18A C37U	0.14
C8A A39G G40U	0
G2U C23A G29C C46G	0.03
G5U G19C G27U G40C A41U	0.01
A4C A25U G35C G40A	0.08
C3U G29C G40U	0
G2C G5U A14U G21U	0.02
G1C G19A C31U U34G G36C	0
G19C C23A C37A	0.01
G2U C8A A14G C15U A41C	0.01
U20C A24G C42G G44C	0.03
A24C U28G U34C G40U	0.04
A6U G17U U20G C31U U38A	0.03
G2C U9A A12G G19C G40A	0.01
G5U U9C C10A G35U	0.05
A12U G35C G36A	0.07
A4U C15G G36A C37A C45U	0.02
A16G C37A G40U	0.37
A14C C18U C23A U32G	0.13
G5A A6U C8G G27U	0.06
G2A U28C U32A	0.26

Variant	self-cleavage
G5A U9C C10U	0.01
C10A C18A G40A G44U	0
G21U G30A G33U	0.06
C23G A26C U28A	0.42
U20A G36A C42U	0.05
C3G G44A C46U	0.04
A6C U9C U32G G33U	0.02
G17U A24C A25C G40U	0.02
G7U C8G G17U C46G	0.05
G19C U20G C23G	0.23
A4U C8A A16C G30U U34G G35U C45A	0.02
G5C A12U A24G	0.06
G7C G17U G19A C42U U43C	0.06
C3U U9A G44U	0.08
C18A G21U U43A	0.04
G33C G36U A41C	0
A11G G19A C42G	0.02
A4C G35A A39U	0.01
G22C A24C U34G	0.22
C8G G29A C31A	0.12
G30A G44A C45A	0.05
A11U U28G G29U	0.13
U9C A24G U28C	0.07
